# Experimental data taken from PubChem BioAssay AID2147 (National Center for Advancing Translational Sciences (NCATS), 2009).
# Where “and” joins values, the source holds several entries; their conditions need not be identical. Equal values may be shown once. The campaign covered roughly 230,000 compounds. About 3,600 (1.6%) were called active. Inconclusive means that the source gave no clear call. Such entries were picked first, then a sample of the others. The call rests on the fitted dose curve; in most records, active means well fitted inhibition curve with a large enough effect (not every such curve was filed as active); inconclusive means small, poorly fitted or top-dose-only effect, or another doubt; inactive means no such curve, though single readings can be large or run the other way. A potency beside an inconclusive call is a rough fit, not a confirmed value.
# Target: Lysine-specific demethylase 4E (Homo sapiens) (UniProt B2RXH2)
# Chain of UniProt B2RXH2 (B2RXH2 whole entry, looked up, the tested form may be a part): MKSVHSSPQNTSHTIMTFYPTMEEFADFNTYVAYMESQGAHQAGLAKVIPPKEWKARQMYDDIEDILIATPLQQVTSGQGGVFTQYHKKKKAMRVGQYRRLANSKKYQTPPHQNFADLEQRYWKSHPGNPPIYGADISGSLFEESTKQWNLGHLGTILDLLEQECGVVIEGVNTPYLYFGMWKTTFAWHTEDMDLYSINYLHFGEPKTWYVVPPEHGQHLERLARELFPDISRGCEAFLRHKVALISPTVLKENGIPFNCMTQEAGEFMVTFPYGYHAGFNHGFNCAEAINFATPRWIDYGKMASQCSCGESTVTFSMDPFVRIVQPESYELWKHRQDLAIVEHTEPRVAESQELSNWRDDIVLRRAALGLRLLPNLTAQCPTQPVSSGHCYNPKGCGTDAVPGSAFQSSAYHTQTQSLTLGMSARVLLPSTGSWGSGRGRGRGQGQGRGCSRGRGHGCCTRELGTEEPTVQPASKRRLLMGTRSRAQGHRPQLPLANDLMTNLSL
# Test: qHTS Assay for Inhibitors of Human Jumonji Domain Containing 2E (JMJD2E)
# Details: JMJD2E catalytic domain, FDH-coupled NADH fluorescence (FDH is formaldehyde dehydrogenase); series mostly up to 57.1 µM
# Further: nearly all actives have a fitted effect of over 50% in size.
# Potency means the concentration at half of the fitted maximal effect; tags describe the fitted curve by direction and shape.
row,SMILES,Potency
1,O=C(Cc1ccc(Br)cc1)Nc1ccc(S(=O)(=O)NCC2CCCO2)cc1 (configuration not stated),inactive
2,CCOC(=O)C1CCN(c2c(NCCCN3CCN(Cc4ccccc4)CC3)c(=O)c2=O)CC1,inactive
3,Cc1ccc(-c2cc(C(=O)Nc3cccnc3)c3ccccc3n2)o1,"inconclusive: 25.1 µM [inhibitor, partial curve]"
4,Cc1cc(C(=O)N/N=C/c2ccncc2)c(C)o1,inactive
5,COc1ccc(C(=O)Nc2ccc(-c3cn4ccsc4n3)cc2)cc1S(=O)(=O)N1CCOCC1,"inconclusive: 35.5 µM [inhibitor, single point]"
6,Cc1ccc(C(=O)O)cc1NC(=S)NC(=O)c1ccc(-c2ccc(Cl)cc2)o1,"inconclusive: 39.8 µM [inhibitor, single point]"
7,NS(=O)(=O)c1ccc(Nc2nc(-c3ccc(O)cc3)cs2)cc1,inactive
8,COc1ccc(NC(=S)NCCc2ccccc2OC)c(OC)c1,inactive
9,OCCN1CCN(Cc2cc(Cl)c3cccnc3c2O)CC1,active: 22.4 µM
10,Cc1ccc(-c2cc(C(F)F)nc(NCC3CCCO3)n2)cc1 (configuration not stated),"inconclusive: 22.4 µM [inhibitor, partial curve]"
11,O=C(c1ccc(S(=O)(=O)N2CCOCC2)cc1)N(c1cccc(Cl)c1)C1C=CS(=O)(=O)C1 (configuration not stated),inactive
12,Cc1cc(OCc2cc3c(cc2Cl)OCO3)c2c(C)cc(=O)oc2c1,inactive
13,CCC(=O)N(Cc1ccco1)c1nc(C(=O)Nc2ccc(Cl)cc2)c(C)s1,"inconclusive: 39.8 µM [inhibitor, single point]"
14,Cc1cccc(CNC(=O)c2ccccc2N)c1,"inconclusive: 28.2 µM [inhibitor, partial curve]"
15,COc1cc(-c2nnc(COc3ccc4ccccc4c3)o2)cc(OC)c1OC,"inconclusive: 39.8 µM [inhibitor, single point]"
16,O=C(NCCCl)C1Cc2c(ccc3ccccc23)O1 (configuration not stated),"inconclusive: 0.631 µM [inhibitor, partial curve, poor fit]"
17,COc1cccc(-c2ccc(C#N)c(OC(=O)c3c(Cl)cccc3Cl)n2)c1,"inconclusive: 28.2 µM [inhibitor, partial curve]"
18,CC(=O)Nc1sc2c(c1C(N)=O)CCN(Cc1ccccc1)C2,"inconclusive: 20 µM [inhibitor, partial curve]"
19,C=CCNC(=S)NNC(=O)c1ccc(=O)n(Cc2ccccc2)c1,"inconclusive: 39.8 µM [inhibitor, single point]"
20,COc1ccc(-c2nc3ccccc3s2)cc1NC(C)=O,"inconclusive: 31.6 µM [inhibitor, partial curve]"
21,CCCCc1nc(NCCO)c(C#N)c2c1CCCC2,"inconclusive: 31.6 µM [inhibitor, partial curve]"
22,Nc1ccc(C(=O)c2cccs2)cc1,inactive
23,CSc1ccccc1NC(=O)Cc1ccccc1[N+](=O)[O-],inactive
24,O=C(O)c1ccccc1NCCO,"inconclusive: 28.2 µM [inhibitor, partial curve]"

row,SMILES,Potency
1,Cc1noc(C)c1COc1ccc(C(=O)OCc2nnc(-c3ccc(Cl)cc3)o2)cc1,inactive
2,Cc1nc(NCCc2ccccc2)c2oc3ccccc3c2n1,"inconclusive: 31.6 µM [inhibitor, single point]"
3,CCOc1cccc(/C=N/NC(=O)c2cc(-c3cccn3C)n[nH]2)c1O,active: 31.6 µM
4,COc1cc(-c2nn3c(C4CCCCC4)nnc3s2)cc(OC)c1OC,"inconclusive: 25.1 µM [inhibitor, single point]"
5,CCCCn1c(NC(=O)CC)c(C#N)c2nc3ccccc3nc21,"inconclusive: 31.6 µM [inhibitor, partial curve]"
6,O=C(CSc1nc2c(c(=O)n1-c1ccccc1)SCC2)N1CCN(c2ccccc2)CC1,inactive
7,O=C(CCN1C(=O)/C(=C/c2cccc(Br)c2)SC1=S)Nc1cccnc1,inactive
8,COc1cc(CN(C)Cc2ccccc2)cc(OC)c1O,"inconclusive: 39.8 µM [inhibitor, single point]"
9,C/C=C/C=C/[C@H]1Cc2cc(O)cc(O)c2O1,"inconclusive: 31.6 µM [inhibitor, single point]"
10,CC1(C)OC(=O)C(=NNc2ccccc2[N+](=O)[O-])C(=O)O1,inactive
11,O=C(/C=C/c1ccnc2ccccc12)c1cccs1,inactive
12,CCOc1ccc(NC(=O)c2cccc(-n3cnnn3)c2)cc1,"inconclusive: 39.8 µM [inhibitor, single point]"
13,COc1cccc(-c2cc3nc(-c4ccccc4)cc(N4CCCC(O)C4)n3n2)c1 (configuration not stated),"inconclusive: 31.6 µM [inhibitor, partial curve]"
14,CC1CCN(C(=S)NC(=O)C2CCCCC2)CC1,inactive
15,CCCCNC(=O)c1cc2c(=O)n3cccc(C)c3nc2n1C,"inconclusive: 0.708 µM [inhibitor, full curve]"
16,C[C@@H]1C[C@](C)(C(=O)c2ccco2)C=C1c1ccco1,inactive
17,COc1cccc(N=c2oc3cc(O)ccc3cc2C(=O)NCC2CCCO2)c1 (configuration not stated),"inconclusive: 25.1 µM [inhibitor, partial curve]"
18,O=C(O)/C=C/C(=O)NNc1ccc([N+](=O)[O-])cc1,"inconclusive: 11.2 µM [inhibitor, partial curve]"
19,COc1ccccc1NS(=O)(=O)c1cc(NC(=O)c2ccc(Cl)nc2)ccc1Cl,"inconclusive: 35.5 µM [inhibitor, single point]"
20,COCC(=O)Nc1c(C(=O)Nc2ccccc2OC)oc2ccccc12,"inconclusive: 35.5 µM [inhibitor, single point]"
21,COc1ccc(-c2cc(=O)c3cc(OC)ccc3[nH]2)cc1,"inconclusive: 28.2 µM [inhibitor, partial curve]"
22,COc1cc(CN2CCN(S(=O)(=O)c3ccc(F)cc3)CC2)cc(OC)c1OC,"inconclusive: 25.1 µM [inhibitor, single point]"
23,CN(CC(=O)Nc1ccc(N2CCOCC2)cc1)Cc1c(O)ccc2ccccc12,"inconclusive: 22.4 µM [inhibitor, partial curve]"
24,Cc1[nH]c2ccccc2c1/C=C(\C#N)C(=O)NC(C)c1ccccc1 (configuration not stated),"inconclusive: 35.5 µM [inhibitor, single point]"

row,SMILES,Potency
1,O=C(N/N=C/C=C/c1ccco1)c1cnccn1,inactive
2,O=C(CCc1ccccc1)NNC(=O)c1ccccn1,"inconclusive: 31.6 µM [inhibitor, single point]"
3,O=C(/C=C/c1ccc2c(c1)OCO2)NCCSCc1ccc(Cl)cc1Cl,"inconclusive: 28.2 µM [inhibitor, single point]"
4,O=C(N/N=C/c1cc(Br)cc(Br)c1O)c1cccc(N2CCCC2=O)c1,"inconclusive: 39.8 µM [inhibitor, single point]"
5,CC(=O)[C@H]1[C@@H]2C(=O)N(c3cccc(Cl)c3)C(=O)[C@@H]2[C@H]2c3ccccc3C=CN21,"inconclusive: 35.5 µM [inhibitor, single point]"
6,CCCN(CCC)c1ncnc2c1cnn2-c1ccc(OC)cc1,"inconclusive: 31.6 µM [inhibitor, single point]"
7,CCCCCCCn1c(=O)c(C(=O)OC)c(N)c2ccccc21,"inconclusive: 31.6 µM [inhibitor, single point]"
8,Nc1ccc(Br)cc1C(=O)O,"inconclusive: 14.1 µM [inhibitor, partial curve]"
9,O=C(NCCc1ccccc1)c1n[nH]c2ccccc12,inactive
10,CC(=O)C1=C(c2ccccc2)NC(=S)NC1c1ccc(O)c(O)c1 (configuration not stated),active: 22.4 µM
11,Cc1ccc(Cn2c(C(=O)NCCCN3CCOCC3)cc3sccc32)cc1,inactive
12,O=c1cc(N2CCOCC2)oc2c(-c3ccccc3)cccc12,"inconclusive: 39.8 µM [inhibitor, single point] and inconclusive: 35.5 µM [inhibitor, single point]"
13,Cc1nc2c(C#N)cnn2c2c1CCNN2C,"inconclusive: 25.1 µM [inhibitor, single point]"
14,CCOC(=O)c1c(NC(=O)c2ccco2)sc(C(=O)N2CCCC2)c1C,"inconclusive: 39.8 µM [inhibitor, single point]"
15,CCc1nc(N2CCOCC2)c(C#N)c2c1COC(C)(C)C2,"inconclusive: 28.2 µM [inhibitor, partial curve]"
16,O=C(c1ccc(Cl)cc1)N1CCN(c2ccc(F)cc2)CC1,inactive
17,Cc1cccc(NC(=O)C2CCN(c3nccc(C)n3)CC2)c1,"inconclusive: 25.1 µM [inhibitor, partial curve]"
18,Cc1oc2cc(O)ccc2c(=O)c1-c1nncn1-c1ccccc1,"inconclusive: 25.1 µM [inhibitor, partial curve]"
19,CCc1cc(C(=O)Cc2cnn(-c3ccccc3)c2)c(O)cc1O,"inconclusive: 3.55 µM [inhibitor, single point]"
20,CC1(C)S[C@H]2C(NC(=O)[C@@H](N)c3ccc(O)cc3)C(=O)N2[C@@H]1C(=O)O (some centres not stated),"inconclusive: 25.1 µM [inhibitor, partial curve]"
21,N=c1ccn(CC(=O)NC(N)=O)c2ccccc12,"inconclusive: 39.8 µM [inhibitor, single point]"
22,CCCn1c(=NC(=O)c2ccc3c(c2)OCO3)c(C#N)cc2c(=O)n3cccc(C)c3nc21,"inconclusive: 3.98 µM [inhibitor, full curve]"
23,CC(=O)N1c2ccc(N=Cc3cc(Br)cc(Br)c3O)cc2CC1C (configuration not stated),"inconclusive: 0.251 µM [inhibitor, full curve]"
24,CCCSc1cc(NCCOC(=O)CCC)c([N+](=O)[O-])c2nonc12,inactive
